# According to PubChem BioAssay (Tox21):
# Inconclusive means that the source gave no clear call. Such entries were picked first, then a sample of the others. For some of these results: Potencies of inconclusive entries are left out as doubtful fits. Activity calls are given as the source filed them. Calls come from the whole dose curve; as a rule, active = well fitted curve in the direction sought with a large enough effect in the repeat runs; inconclusive = weak or mixed curves; inactive = no such curve, though single readings can be large; an effect the other way counts as inactive or inconclusive.
# Columns and labels:
# [1] = qHTS RealTime-Glo MT Cell Viability Assay in HEK293 cells - 24 hour (AID 1224886); note: nearly all actives have a fitted effect of over 50% in size; note: potency is the fitted concentration of half-maximal effect; for activity change, negative = cytotoxicity: top concentration of the series differs between compounds
# Method in brief: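 Tox21 10K qHTS, HEK293, 600 cells/well, RealTime-Glo reagent co-dispensed with cells; 5 h preincubation, compound by pintool, 37 C, luminescence at 0–40 h.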
# [2] = qHTS RealTime-Glo MT Cell Viability Assay in HEK293 cells - 8 hour (AID 1224887); note: nearly all actives have a fitted effect of over 50% in size; note: potency is the fitted concentration of half-maximal effect; for activity change, negative = cytotoxicity: top concentration of the series differs between compounds
# Method in brief: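 600 cells/well were plated with the nonlytic NanoLuc/prosubstrate reagent, pre-incubated 5 h, then given 23 nL of compound in DMSO. Incubation at 37 C for 40 h, with luminescence from viable-cell-reduced substrate read repeatedly from 0 h.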
# [3] = A CellTox Green Cytotoxicity Assay to monitor cytotoxicity in HEK293 cells - 16 hour (AID 1224888); note: nearly all actives have a fitted effect of over 35% in size
# Method in brief: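 HEK293 cells, 600/well, were preincubated 5 hours and then exposed to compounds at 37 C for up to 40 hours. A cell-impermeant cyanine dye staining dead-cell DNA was read by fluorescence at 0, 8, 16, 24, 32 and 40 h time points.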
# [4] = qHTS RealTime-Glo MT Cell Viability Assay in HepG2 cells - 0 hour (AID 1224889); note: nearly all actives have a fitted effect of over 50% in size
# Method in brief: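 Cells + NanoLuc/prosubstrate dispensed (600 cells/well) → 5 h at 37 C/5% CO2 → compounds in DMSO transferred → 40 h incubation at 37 C, luminescence read at 0, 8, 16, 24, 32, 40 h.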
# % is set by controls: 0 for no effect and ±100 for the full control effect; tags give direction and shape of the fitted curve.
smiles,measurement,setting,value
O=C(OCCCCCCOC(=O)c1ccccc1)c1ccccc1,Potency,[1],"inconclusive [cytotoxic, single point]"
same,Potency,[2],"inconclusive [cytotoxic, partial curve]"
N#CCCOCCOCCC#N,Potency,[1],inactive
Nc1c(NC/C=C\COc2cc(CN3CCCCC3)ccn2)c(=O)c1=O,"activity change, negative = cytotoxicity",[1],inactive: 3.04% [at 15.8 µM]
same,"activity change, negative = cytotoxicity",[2],inactive: 1.9% [at 15.8 µM]
CCOC(=O)NCCOc1ccc(Oc2ccccc2)cc1,Potency,[1],active: 21.9 µM
same,Potency,[2],"inconclusive [cytotoxic, partial curve]"
O=C1c2ccccc2C(=O)c2cc(S(=O)(=O)O)ccc21,Potency,[1],"inconclusive [rising, partial curve]"
same,Potency,[2],"inconclusive [rising, partial curve]"
CCOC(=O)N1CCC(n2c(=O)[nH]c3cc(Cl)ccc32)CC1,Potency,[1],"inconclusive [cytotoxic, full curve]"
same,Potency,[2],"inconclusive [cytotoxic, partial curve]"
same,Potency,[3],inactive
same,Potency,[4],inactive
